From PubChem BioAssay (NCI)
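Following 48 hours of exposure in 96-well plates, responses at five concentrations were used to interpolate endpoints linearly. GI50 is the concentration that inhibits growth by half. TGI marks complete inhibition of growth.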 The source made the active and inactive calls.

Assays:
Assay in all cases: inhibition of tumour cell growth, NCI panel, 48 h
HOP-92 NSCLC = test system: HOP-92 NSCLC
SR leukemia = test system: SR leukemia
NCI-H23 lung = test system: NCI-H23 lung
NCI-H226 lung = test system: NCI-H226 lung
UACC-257 melanoma = test system: UACC-257 melanoma
CCRF-CEM leukemia = test system: CCRF-CEM leukemia

Fc1ccc(-c2ncn(C3CCNCC3)c2-c2ccnc(Oc3cccc(F)c3)n2)cc1
GI50 (HOP-92 NSCLC): inactive
TGI (HOP-92 NSCLC): > 25 µM
GI50 (SR leukemia): inactive
TGI (SR leukemia): 13.3 µM
GI50 (NCI-H23 lung): > 25 µM
TGI (NCI-H23 lung): > 25 µM
GI50 (NCI-H226 lung): inactive
TGI (NCI-H226 lung): > 25 µM
GI50 (UACC-257 melanoma): inactive
TGI (UACC-257 melanoma): 12.6 µM
GI50 (CCRF-CEM leukemia): inactive
TGI (CCRF-CEM leukemia): > 25 µM
